Assay results taken from the supplement of paper PMC11417369.
The other results are listed elsewhere or left out.

What follows are sequences tested on PfAP2-HC AP2 domain (GST-tagged) (assay: gcPBM binding intensity (ln(normalized median fluorescence intensity)); higher = stronger DNA binding).
Summary of the method: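 After 1 h on an Agilent 4 × 180k array of primer-extended double-stranded 36-bp intergenic genomic probes and negative controls, bound GST-tagged P. falciparum DNA-binding domains were detected with Alexa488 anti-GST antibody and scanned at 488 nm. The domains had been expressed in E. coli, and binding took place in 1× PBS with 1% milk, 0.2 mg/ml BSA, 0.5% salmon testes DNA and 0.03% Triton X-100. Binding intensity is the highest Masliner-normalised natural-log median intensity across replicate spots of either probe orientation.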

Sequence | gcPBM binding intensity (ln)
GTAAATATGTTTATTAGTACACATATGAAAATAAAT [XGTACX_site5820] | 9.84
ATATATTGTATGTGCTCACACATGTTTCGATATTAT [CACACA_site4336] | 9.81
GTTGTTTCTATAAATTGTACTTAAATATAATTATAT [XGTACX_site585] | 9.7
TCTTTTTTTTTACATACTTTTTTCCTTTTTTTTTTA [CACACA_negctrl_site1429] | 9.71
ACGCACGAAATAAATACATGCATATTGTAAAAATTA [TGCATGCA_site310] | 9.48
GGGAATATATTCAATTGTACATTCTTATTTTATCCA [XGTACX_site8480] | 9.62
TCTTGTAGATATATTTGTACATATATTTATGGGTAT [XGTACX_site1139] | 9.61
CTAGACTTTTTACAATGTACATATTTATGTATTATT [XGTACX_site1833] | 9.86
TTTTTTCATAAATAATGTACATATATATATATATAT [XGTACX_site3620] | 9.73
ATATTATTTATAAGTTGTACGGTATAATATAATATA [XGTACX_site5371] | 9.58
AAAAAATATATATTAACACACACACTAATAAAAAAA [CACACA_site8366] | 10.4
AAAATTTTTTACTTTACACACATTTTGTATATTTTG [CACACA_site1730] | 10
TATTTAATGCAAAAACGTACATAAATAACATTCACA [XGTACX_site5356] | 9.7
TATATATATATTAGTGGTACAAGATTTTTTTCTTTT [XGTACX_site4619] | 9.54
TATAAACACCCATATAAACACACATACATACATACA [CACACA_site8791] | 10.2
AACTTTGAGACATAGTGTACTTACACAATCTTAATA [XGTACX_site3712] | 9.63
ACATTTTTTTTTTTTTTTCTTTTTCTTTTTCTTTTT [CACACA_negctrl_site1295] | 9.55
CATATTTGATACAAGTGTACTTTATTTAAAAATTCT [XGTACX_site8408] | 9.4
TTTCAAAAAAATAGCTATATTTATATTAATGCACGA [TGCATGCA_negctrl_site63] | 9.47
TAATAAAAATAAAATTGTACTAATAACATTTCATTA [XGTACX_site3703] | 9.45
TATATAACTGTCTTCAGTACACAATAAATAAAAATA [XGTACX_site8856] | 9.59
AAAGGTGTATATAATACACACGTGTGATTAAAATTG [CACACA_site8104] | 10.1
GAAAAAATAAAATAAAGTACATAACTATAATAAAAA [XGTACX_site4807] | 9.89
CTTACACCCATATATACACACATGTATATTTTATAT [CACACA_site4462] | 10.1
